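In this assay, cells in 96-well plates receive the compound at five concentrations for 48 hours. Endpoints are linearly interpolated between the surrounding concentrations. Abbreviation: GI50, concentration required for 50% inhibition of growth.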 A number of entries come with more than one value. They are shown here; other results are not. There may be further records. For some assays here: The tests behind the records often covered other concentration ranges, not given here; some values may only mark the edge of a range.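 TGI marks complete inhibition of growth.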 Signs of the kind (2×) say how often a value occurs here. For some assays here: Values that stand side by side are repeats (runs, samples, wells, individuals or studies). What stands in brackets tells the records apart. A, B and so on number the origins entry by entry.
Key:
Assay in all cases: NCI-60 cell line screen, 48 h
HOP-62 NSCLC = test system: HOP-62 NSCLC
786-0 renal = test system: 786-0 renal
A498 renal = test system: A498 renal
A549 NSCLC = test system: A549 NSCLC
ACHN renal = test system: ACHN renal
COLO 205 colon = test system: COLO 205 colon
EKVX NSCLC = test system: EKVX NSCLC
HCC-2998 colon = test system: HCC-2998 colon
HCT-116 colon = test system: HCT-116 colon
HS 578T breast = test system: HS 578T breast
KM12 colon = test system: KM12 colon
LOX IMVI melanoma = test system: LOX IMVI melanoma
M14 melanoma = test system: M14 melanoma
MALME-3M melanoma = test system: MALME-3M melanoma
NCI-H23 lung = test system: NCI-H23 lung
NCI/ADR-RES ovarian = test system: NCI/ADR-RES ovarian
OVCAR-4 ovarian = test system: OVCAR-4 ovarian
OVCAR-5 ovarian = test system: OVCAR-5 ovarian
OVCAR-8 ovarian = test system: OVCAR-8 ovarian
RPMI-8226 leukemia = test system: RPMI-8226 leukemia
SF-268 CNS = test system: SF-268 CNS
SF-295 CNS = test system: SF-295 CNS
SF-539 CNS = test system: SF-539 CNS
SK-MEL-2 melanoma = test system: SK-MEL-2 melanoma
SK-MEL-28 melanoma = test system: SK-MEL-28 melanoma
SK-MEL-5 melanoma = test system: SK-MEL-5 melanoma
SK-OV-3 ovarian = test system: SK-OV-3 ovarian
SN12C renal = test system: SN12C renal
SNB-75 CNS = test system: SNB-75 CNS
SR leukemia = test system: SR leukemia
SW-620 colon = test system: SW-620 colon
TK-10 renal = test system: TK-10 renal
U251 CNS = test system: U251 CNS
UACC-257 melanoma = test system: UACC-257 melanoma
UO-31 renal = test system: UO-31 renal
CCRF-CEM leukemia = test system: CCRF-CEM leukemia

## Cc1c(CNc2ccc(Cl)c(C(=O)NC(CC(=O)O)C(=O)O)c2)ccc2nc(N)nc(N)c12 (stereo not drawn)
HOP-62 NSCLC
  TGI: 1.75 µM and > 1 mM

## Cc1cc(O)c2c(c1)C[C@@H](O)C1=C2C(=O)c2c(O)ccc(OC3CC(O)C(OC4CC(OC5CCC(OC6CC(O)C(OC7CC(OC8CCC(O)C(C)O8)C(O)C(C)O7)C(C)O6)C(C)O5)C(O)C(C)O4)C(C)O3)c2C1=O (stereo partly drawn)
786-0 renal
  TGI: 131 nM, 1.68 µM, 1.14 µM
A498 renal
  TGI: 526 nM, 5.92 µM, 4.25 µM
A549 NSCLC
  TGI: 494 nM and 5.33 µM
ACHN renal
  TGI: 185 nM, 4.34 µM, 2.01 µM
COLO 205 colon
  TGI: 84.6 nM and 1.88 µM
EKVX NSCLC
  TGI: 248 nM, 3.41 µM, 7.13 µM
HCC-2998 colon
  TGI: 246 nM, 3.69 µM, 2.85 µM
HCT-116 colon
  TGI: 81.8 nM, 1.51 µM, 868 nM
HOP-62 NSCLC
  TGI: 411 nM, 4.16 µM, 5.57 µM
HS 578T breast
  TGI: 95.6 nM and 5.4 µM
KM12 colon
  TGI: 253 nM, 4.21 µM, 3.28 µM
LOX IMVI melanoma
  TGI: 98.9 nM, 1.02 µM, 705 nM
M14 melanoma
  TGI: 178 nM, 2.11 µM, 2.56 µM
MALME-3M melanoma
  TGI: 87.5 nM, 3.59 µM, 484 nM
NCI-H23 lung
  TGI: 146 nM, 821 nM, 2.54 µM
NCI/ADR-RES ovarian
  TGI: 211 nM and > 100 µM
OVCAR-4 ovarian
  TGI: 35.2 nM and 1.3 µM
OVCAR-5 ovarian
  TGI: 284 nM, 3.64 µM, 2.37 µM
OVCAR-8 ovarian
  TGI: 119 nM and 1.62 µM
RPMI-8226 leukemia
  TGI: 279 nM, 1.37 µM, 3.51 µM
SF-268 CNS
  TGI: 62.5 nM, 941 nM, 3.67 µM
SF-295 CNS
  TGI: 114 nM, 2.86 µM, 9.22 µM
SF-539 CNS
  TGI: 145 nM, 1.32 µM, 2.64 µM
SK-MEL-2 melanoma
  TGI: 125 nM and 4.04 µM
SK-MEL-28 melanoma
  TGI: 137 nM, 990 nM, 3 µM
SK-MEL-5 melanoma
  TGI: 199 nM and 2.66 µM (2×)
SK-OV-3 ovarian
  GI50: 1.54 µM, 2.57 µM [1 test] and 76.4 nM [mean of 2 tests]
  TGI: 2.88 µM, 8.23 µM [1 test] and 198 nM [mean of 2 tests]
SN12C renal
  TGI: 115 nM, 814 nM, 5.75 µM
SNB-75 CNS
  TGI: 172 nM, 2.84 µM, 5.23 µM
SR leukemia
  TGI: 180 nM, 411 nM, 11.5 µM
SW-620 colon
  TGI: 82.9 nM, 1.19 µM, 437 nM
TK-10 renal
  TGI: 341 nM, 3.79 µM, 6.74 µM
U251 CNS
  TGI: 130 nM, 1.85 µM, 1.29 µM
UACC-257 melanoma
  TGI: 206 nM, 2.85 µM, 2.25 µM
UO-31 renal
  TGI: 266 nM, 2.8 µM, 2.61 µM

## CCc1nc(N)nc(N)c1-c1ccc(Cl)cc1
CCRF-CEM leukemia
  TGI: 9.79 µM [sample A] and > 100 µM [sample B]

Reference: PubChem BioAssay (NCI)
